The full ranking holds about 33,000 sequences; the median of “E-score (-0.5 to 0.5)” is about -0.04, and the highest 2% start at about 0.36. This is one part of the list.
Each sequence was assayed against T1, Hmlalpha2 (UniProt P0CY09) (assay: PBM E-score (8-mer binding enrichment) (E-score (-0.5 to 0.5)); higher = stronger / more preferred TF binding; most listed sequences are background and not binding sites). Conditions: protein concentration: 200 nM; construct: GST-full length.
T1 sequence: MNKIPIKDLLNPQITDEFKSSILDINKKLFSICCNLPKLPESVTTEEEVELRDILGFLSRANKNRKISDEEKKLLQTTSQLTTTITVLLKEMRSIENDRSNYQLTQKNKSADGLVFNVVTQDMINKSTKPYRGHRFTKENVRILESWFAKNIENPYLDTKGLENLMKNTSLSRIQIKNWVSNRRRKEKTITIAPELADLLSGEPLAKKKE
Outline: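 Each ungapped eight-base word and its reverse complement, pooled, received an E-score from the Universal PBM Analysis Suite. Underlying scans, normalised with masliner, recorded fluorescent anti-GST bound to GST-tagged yeast transcription factors. These were applied at about 100-200 nM to universal all-10-mer Agilent arrays double-stranded by primer extension.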

Sequence | PBM E-score
AAGTGCCT | -0.223
ACCCTGCG | -0.126
ATTCGCCC | -0.105
ATTAGCTA | 0.011
CAACCGGC | -0.126
CAAGCAGA | 0.0238
ATAGCGCC | 0.156
AAGGTGGG | -0.222
AACCTAAC | 0.0796
TGCCCAAA | -0.202
CCAGATAA | 0.0707
GGCATTTA | -0.0439
CCTGGTGC | -0.119
GCGGAGGA | -0.138
AAACGGAA | 0.00601
CAACTAAC | 0.201
CCAGACGC | -0.259
ACGCGTGG | 0.121
CCTATGGA | -0.138
AGTTGGAC | 0.0173
CTCCTTGA | -0.202
CACCAGGG | -0.258
GGCAATCA | -0.207
CATGTTGG | 0.358
ACCAAGCT | 0.0398

Sequence | PBM E-score
ACGAGTAT | 0.0171
AGTCCCAG | -0.0667
AAAAAATT | 0.142
CCGTTAAC | 0.0773
GGGCCGCA | -0.242
ATACCCTG | -0.0779
AGATCAAA | -0.112
GCCATCTA | -0.19
CCTGTAGA | 0.0876
AGAATAAG | 0.0592
CTAAGCCA | -0.199
ACTCCACG | -0.226
ATAATAAC | 0.187
CTGAGTAA | 0.115
AAATGAAG | -0.134
ACTGCTGA | -0.119
AACGCGCA | 0.317
ACAAACCA | 0.109
CCTCTAGA | -0.131
GCGAGTAC | 0.159
ATACTTGC | 0.164
TACGTGGA | 0.0888
CCTTGTCC | -0.183
ACAGGGGA | -0.0297
AGTCAGCA | 0.103

Sequence | PBM E-score
CGTTGAAG | 0.116
AGCTTAAT | 0.0138
CTCTGCTC | -0.202
GACTGGGC | -0.102
ACGTGGGG | -0.14
ATACGAGA | 0.128
GAATACTC | 0.115
GCGAGGTA | -0.00122
CGATCTGC | -0.098
GTCGATGA | -0.179
CCGAGGCC | -0.192
CAACTGTC | -0.068
ATACTTCC | -0.104
CTCCCGGC | -0.189
CGTTGTCA | 0.122
AAACGTCT | 0.0962
AAGTGGAT | -0.22
AGGTCAGA | -0.26
ATGCTCGG | -0.255
TTAGTCAA | 0.0139
GATCTGTA | 0.0253
GTATCTGA | 0.0164
AGGTCATG | 0.0302
CCGTGACA | -0.09
AGGCTTTG | -0.236

Sequence | PBM E-score
CGGGTGGC | -0.306
AACCCGAA | -0.195
CTACACTC | 0.145
TGCTACCA | -0.00589
ACCTCTTG | -0.105
TAGCACGA | 0.162
AGCCTAGC | -0.199
AACCCTCT | -0.115
CCGCGTCA | 0.107
AGACCCGA | -0.0455
AATCGAAG | 0.168
CGCCGGAC | -0.196
ATGGCTGA | -0.151
CAATCCTG | 0.0153
CACTCCGG | -0.0549
TAGCGAGA | -0.197
CCGATGCC | -0.326
ATTTGCGG | -0.123
CGGCCTCA | -0.0725
ACAACTTC | 0.128
ACACTTTG | 0.213
GAATTAGA | -0.0752
GCTGCAAA | 0.131
AGCTCGTC | -0.133
TTATGAAA | 0.112

Sequence | PBM E-score
GACTATCC | -0.282
ATTAGTAG | 0.115
ACACCTCT | 0.0306
CAGAGACA | -0.0824
GCCACGGA | -0.188
AACAACTT | 0.143
CTCCCATC | -0.242
CCGGGTAC | -0.116
CTCACCCA | -0.288
ATTAGACC | -0.162
CCGCAAAA | 0.0413
CAACGACC | -0.126
GTGGGAAA | -0.064
CCGATTCA | -0.167
CGGGCCCA | -0.187
AGGACCCC | -0.271
AATCGAAA | -0.0545
GCAACGAC | -0.0848
CTCATGTA | 0.454
AAAGCGGG | -0.178
CGTGACAC | 0.141
CGCGACTC | -0.165
TATAGAGA | 0.0261
CCATTTCA | -0.166
AGCAGATG | -0.175

Sequence | PBM E-score
ATATCGAC | -0.025
CGTATTCA | 0.3
CGATTACG | 0.274
AGGTTGAT | -0.169
ATACCAGC | -0.219
GACCTACC | -0.247
ATTTGAAG | -0.204
CAAGAGTA | 0.128
CCGACTCA | -0.32
CGATCGGA | -0.192
GAGACCAC | -0.0272
AGTTTGTA | 0.261
AATCGGGG | -0.203
GAGTTCGA | 0.0987
GCTAGCAA | -0.0632
CGCGGGGC | -0.117
AATATAGC | -0.0955
AGAAGAAA | 0.0158
ACTAGAGC | -0.161
CAGCCGCC | -0.333
GCTCTCGA | -0.111
ACATAGGA | 0.218
GAGGTCCC | -0.299
TACTAGTA | 0.356
TGCGCACA | 0.0807

Sequence | PBM E-score
AATTATCG | 0.13
ATATTACC | 0.187
GCCCCTTA | -0.258
GCCCTAAA | -0.24
ACTCTTCG | -0.0072
CTACTGTC | -0.219
ACTCCAGT | -0.275
GAGTTTAC | 0.24
ACCAAACG | -0.0998
ACTAACAT | 0.361
AGTACGAG | -0.0225
CGACTTAG | -0.119
AACGGCGT | 0.0517
GCTAACTA | 0.0741
CGGTTCGC | -0.104
AAGGCGTA | 0.0716
CCAAATGG | -0.0465
CGAGCAGC | -0.0224
GAGGATCA | -0.143
GTGGTTGA | 0.00853
TGCGGCCA | -0.134
AATTTAGT | 0.059

From the supplement of paper PMC3334620
